About 31,000 (8.9%) of roughly 350,000 compounds were called active. Inconclusive results, whose numbers are uncertain, are shown with a selection of clear calls. Calls come from the whole dose curve; as a rule, active = well fitted inhibition curve with a large enough effect; inconclusive = small, poorly fitted or top-dose-only effect; inactive = no such curve, though single readings can be large or run the other way. A potency beside an inconclusive call is a rough fit, not a confirmed value.
The compounds below were run against Histone-lysine N-methyltransferase EHMT2 (Homo sapiens) (UniProt Q96KQ7) (assay: qHTS Assay for Inhibitors of Histone Lysine Methyltransferase G9a). Conditions: G9a H3K9 monomethylation, AlphaScreen, 2 h; activity, negative = inhibition: at 59 µM (top of the series) unless noted.
How it was run: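 Enzyme 20 nM + cpd, 15 min RT; add b-H3K9 pep 500 nM / SAM 20 uM; 2 h RT; anti-H3K9me1 Ab 0.5 ug/mL + SA donor / anti-rabbit acceptor beads 20 ug/mL each, 10 min; AlphaScreen read.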
% is set by controls: 0 for no effect and ±100 for the full control effect; potency is the fitted concentration of half-maximal effect; tags give direction and shape of the fitted curve.
Note: nearly all actives have a fitted effect of over 75% in size.

Chain of UniProt Q96KQ7 (Q96KQ7 whole entry, looked up): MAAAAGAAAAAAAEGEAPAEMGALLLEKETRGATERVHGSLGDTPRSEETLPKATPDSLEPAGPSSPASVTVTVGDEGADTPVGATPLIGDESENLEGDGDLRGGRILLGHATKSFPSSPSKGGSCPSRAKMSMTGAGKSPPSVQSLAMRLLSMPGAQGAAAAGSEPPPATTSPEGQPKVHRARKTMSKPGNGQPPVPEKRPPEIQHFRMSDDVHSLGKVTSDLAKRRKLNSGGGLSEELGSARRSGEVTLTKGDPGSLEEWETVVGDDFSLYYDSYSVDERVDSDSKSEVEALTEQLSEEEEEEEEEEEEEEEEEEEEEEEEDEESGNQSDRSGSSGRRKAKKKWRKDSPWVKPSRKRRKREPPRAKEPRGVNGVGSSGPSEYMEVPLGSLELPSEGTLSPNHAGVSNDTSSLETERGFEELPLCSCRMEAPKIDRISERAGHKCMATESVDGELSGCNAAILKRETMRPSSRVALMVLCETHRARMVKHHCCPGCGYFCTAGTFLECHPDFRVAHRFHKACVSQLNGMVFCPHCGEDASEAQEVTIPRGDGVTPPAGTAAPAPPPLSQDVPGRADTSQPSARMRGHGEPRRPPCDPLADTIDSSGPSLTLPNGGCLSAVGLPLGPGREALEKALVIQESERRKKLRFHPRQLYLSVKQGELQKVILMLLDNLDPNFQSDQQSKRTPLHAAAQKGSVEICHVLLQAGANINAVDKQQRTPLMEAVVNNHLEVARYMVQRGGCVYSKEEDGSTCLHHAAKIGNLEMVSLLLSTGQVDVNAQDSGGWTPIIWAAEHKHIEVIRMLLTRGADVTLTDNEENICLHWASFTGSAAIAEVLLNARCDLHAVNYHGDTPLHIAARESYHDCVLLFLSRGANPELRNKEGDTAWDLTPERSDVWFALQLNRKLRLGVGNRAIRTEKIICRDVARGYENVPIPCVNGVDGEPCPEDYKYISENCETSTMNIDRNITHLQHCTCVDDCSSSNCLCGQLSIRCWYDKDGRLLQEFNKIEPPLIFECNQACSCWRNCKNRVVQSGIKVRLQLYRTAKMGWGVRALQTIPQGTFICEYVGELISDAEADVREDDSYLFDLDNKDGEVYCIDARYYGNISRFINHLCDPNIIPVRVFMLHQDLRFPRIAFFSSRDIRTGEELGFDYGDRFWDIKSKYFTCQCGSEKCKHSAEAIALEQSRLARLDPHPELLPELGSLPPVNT

SMILES	Potency	activity, negative = inhibition
Cc1cc(N2CCOCC2)ccc1/C=C1/SC(=O)NC1=O	inconclusive: 31.6 µM [inhibitor, partial curve]	
Cc1[nH]n(-c2ccccc2)c(=O)c1C=Nc1ccc(S(=O)(=O)N=C(N)N)cc1	inconclusive: 70.8 µM [inhibitor, single point]	
O=C(c1cc(C(F)(F)F)cc(C(F)(F)F)c1)N1CCC2(CCCN(c3ncccn3)C2)CC1		inactive: 6.99% [at 12.7 µM]
NC(=O)CSc1oc(-c2ccco2)nc1S(=O)(=O)c1ccc(F)cc1	inconclusive: 35.5 µM [inhibitor, full curve]	
O=S(=O)(N1CCCCC1)N1CCN(CC(O)COc2ccc3cc(Br)ccc3c2)CC1 (centres undefined)		inactive: 6.04% [at 12.7 µM]
COc1ccc(-n2c(SCC(=O)NCc3ccco3)nnc2-c2c[nH]c3ccccc23)cc1	inconclusive: 28.2 µM [inhibitor, single point]	
COc1cccc(/C=N/n2c(COc3ccccc3)n[nH]c2=S)c1	active: 1.78 µM	
CS(=O)(=O)N1CCC2(CC1)CN(Cc1ccccc1)C2	inconclusive: 0.708 µM [inhibitor, full curve, poor fit]	
CCOC(=O)C1CCCN(C2CC(=O)N(c3ccc(N4C(=O)CC(N5CCCC(C(=O)OCC)C5)C4=O)cc3)C2=O)C1 (centres undefined)	active: 31.6 µM	
COc1ccc(C(=O)NCC(=O)OCC(=O)N2N=C(c3ccc(Cl)cc3)CC2c2ccco2)cc1OC (centres undefined)	active: 20 µM	
CCOc1cc(C2C(C(=O)c3ccco3)=C(O)C(=O)N2CCc2ccccc2)ccc1O (centres undefined)		inconclusive: -80% [inhibitor]
CC(c1ccccc1)N1C(=O)c2ccc(C(=O)NCc3ccco3)cc2C1=O (centres undefined)	inconclusive: 28.2 µM [inhibitor, single point]	
Cc1cc(S(=O)(=O)N2CCN(c3ccccc3O)CC2)c(C)s1	inconclusive: 89.1 µM [inhibitor, single point]	
O=C(NCCCN1CCCC1)c1ccc2c(c1)N(Cc1ccccc1F)C(=O)c1ccccc1S2=O (centres undefined)	inconclusive: 56.2 µM [inhibitor, partial curve]	
COc1ccc(OC)c(S(=O)(=O)N2CCC(C(=O)NCc3ccccc3OC)CC2)c1	inconclusive: 89.1 µM [inhibitor, single point]	
COc1ccc(-c2nnc(SCC(=O)NC(=O)NCc3ccco3)o2)cc1		inconclusive: -53.8% [inhibitor]
Cc1ccc(CN2CC(C(=O)N3CC=C(c4ccccc4)CC3)CC2=O)cc1 (centres undefined)	inconclusive: 50.1 µM [inhibitor, partial curve, poor fit]	
O=C(Nc1ccc([N+](=O)[O-])cc1)N1CCCCCC1		inactive: -27.3% [at 102 µM]
Cc1ccc(C(=O)NNS(=O)(=O)c2ccccc2[N+](=O)[O-])cc1	inconclusive: 20 µM [inhibitor, single point]	
Cc1nn(-c2ccccc2)c2c1C(c1ccccc1)C(C#N)=C(N)O2 (centres undefined)	inconclusive: 39.8 µM [inhibitor, partial curve, poor fit]	
N#C/C(=C\c1ccc[nH]1)C(=O)Nc1ccccc1[N+](=O)[O-]		inactive: 15.5% [at 102 µM]
Cc1c(NC(=O)c2ncn[nH]2)cccc1-c1nc2ccccc2s1	inconclusive: 79.4 µM [inhibitor, single point]	
CN(C)S(=O)(=O)c1cc(NC(=O)C2=COCCO2)ccc1Cl	inconclusive: 7.08 µM [inhibitor, single point]	

SMILES	Potency	activity, negative = inhibition
COc1cccc(CN(C)C(=O)c2ccc(C)c(S(=O)(=O)N3CCCCC3)c2)c1		inactive: 7.04% [at 12.7 µM]
O=C(/C=C/c1ccccc1)c1ccccn1	inconclusive: 39.8 µM [inhibitor, single point]	
CCCCN(CCCNC(=O)Cn1nc(CC)n2c(cc3sc(C)cc32)c1=O)Cc1ccccc1	inconclusive: 79.4 µM [inhibitor, single point]	
COc1ccccc1OCCOc1ccc(/C=C2\C(=N)N3N=C(S(C)(=O)=O)SC3=NC2=O)cc1		inactive: 2.95% [at 2.33 µM]
COc1cc(C(=O)O)nc2ccc([N+](=O)[O-])cc12	active: 17.8 µM	
CC1CCc2c(sc(NC(=O)CCCn3cnc([N+](=O)[O-])n3)c2C(N)=O)C1 (centres undefined)	inconclusive: 70.8 µM [inhibitor, partial curve, poor fit]	
CCCNC(=O)Cn1c(=O)c2cccn2c2cccnc21		inactive: -3.79%
CCOc1cc(CNCCCN2CCOCC2)cc(Br)c1OCc1ccccc1Cl	inconclusive: 89.1 µM [inhibitor, partial curve, poor fit]	
COc1cc(/C=N/Nc2nn3cnnc3c3ccccc23)ccc1O	active: 79.4 µM	
CN1CCN(C(=O)c2ccc3c(c2)NC(=O)/C(=C/c2ccccc2)S3)CC1	inconclusive: 22.4 µM [inhibitor, single point]	
O=C(NC(=S)Nc1ccc(CN2CCOCC2)cc1)c1ccccc1[N+](=O)[O-]	inconclusive: 20 µM [inhibitor, single point]	
COc1ccc(Br)cc1CN1CCN(C(=O)c2ccc(F)cc2)CC1	active: 11.2 µM	
COc1cc(OC)c2c(c1Cl)O[C@@]1(C2=O)[C@H](C)CC(=O)C[C@@H]1OC		inactive: 19.6% [at 21.5 µM]
COc1ccc(CC(=O)Nc2ccc(S(=O)(=O)Nc3cc(C)on3)cc2)cc1OC		inactive: -0.221% [at 102 µM]
Cn1c(N)c(C(=O)COC(=O)COc2ccccc2C#N)c(=O)n(C)c1=O		inactive: 4.56% [at 102 µM]
CCOC(=O)/C(=N\Nc1cccc(C(F)(F)F)c1)N1CCOCC1	inconclusive: 22.4 µM [inhibitor, full curve]	
Cn1cc([N+](=O)[O-])c(C(=O)NNC(=O)c2ccc([N+](=O)[O-])cc2Cl)n1	inconclusive: 31.6 µM [inhibitor, full curve]	
COc1ccc(S(=O)(=O)O)cc1P(=O)(c1ccccc1)c1ccccc1		inactive: 3.04% [at 102 µM]
CCCNC(=O)CCCN1C(=O)CCn2nc(-c3cccn3C)cc21		inactive: -4.2%
CCc1cc(=O)oc2c(C)c3c(cc12)CN(CCc1ccccc1OC)CO3		inactive: 9.06%
Cc1ccoc1C(=O)NCCNC(=O)c1occc1C		inactive: -12.4% [at 102 µM]
COc1ccc(CCNC(=O)c2cnn3ccccc23)c(OC)c1OC	inconclusive: 39.8 µM [inhibitor, partial curve, poor fit]	
COc1cc(-c2noc(CCC(=O)NC3CCCCC3)n2)cc(OC)c1OC	inconclusive: 6.31 µM [inhibitor, partial curve, poor fit]	

SMILES	Potency	activity, negative = inhibition
Cc1cc(C)nc(SCC(=O)c2ccc([N+](=O)[O-])cc2)n1	inconclusive: 28.2 µM [inhibitor, single point]	
Cc1ccccc1Cn1nc(C)c(NC(=O)c2noc3c2CCCC3)c1C	inconclusive: 44.7 µM [inhibitor, partial curve, poor fit]	
O=C(/C=C/c1ccco1)Nc1nc(-c2ccccn2)cs1	active: 22.4 µM	
COc1ccc(OCCCC(=O)OCC(=O)Nc2ncc(Cl)cc2Cl)cc1	inconclusive: 79.4 µM [inhibitor, single point]	
Cc1cc(C)cc(Nc2cc(C(=O)NCCCN(C)C3CCCCC3)c3ccccc3n2)c1		inactive: 6.62%
Cc1ccc(Cl)cc1N1CCN(C(=O)c2ccc(CS(=O)c3ccccc3)o2)CC1 (centres undefined)	inconclusive: 10 µM [inhibitor, partial curve, poor fit]	
O=C(CCSCc1cnn(-c2ccccc2)c1-n1cccc1)NCc1ccccc1Cl	inconclusive: 35.5 µM [inhibitor, partial curve, poor fit]	
Cc1ccc(C)c(NC(=O)CN(C)C(=O)C2COc3ccccc3O2)c1 (centres undefined)	inconclusive: 8.91 µM [inhibitor, partial curve, poor fit]	
CSc1nc(Nc2ccc(Cl)cc2)c(C#N)c(=O)[nH]1		inactive: -8.77% [at 102 µM]
c1ccc(-n2nnc3c(N4CCOCC4)ncnc32)cc1	inconclusive: 31.6 µM [inhibitor, full curve, poor fit]	
O=C(CN1C(=O)NC2(CCCc3ccccc32)C1=O)c1ccc(Br)cc1 (centres undefined)		inactive: -50.1% [at 102 µM]
COc1ccc(NS(=O)(=O)c2ccc(-c3cnc(C4CC4)o3)cc2)cc1Cl		inactive: -19.3%
COc1ccc(-n2cnnc2SC(C)C(=O)Nc2cccc([N+](=O)[O-])c2)cc1 (centres undefined)	inconclusive: 79.4 µM [inhibitor, single point]	
Cc1ccccc1NC(=O)c1ccc(F)c(S(=O)(=O)N2CCCCC2)c1	inconclusive: 50.1 µM [inhibitor, partial curve]	
OCC1(Cc2ccccc2)CCCN(Cc2ccc3c(c2)OCCO3)C1 (centres undefined)	inconclusive: 89.1 µM [inhibitor, single point]	
COCCNC(=O)CCc1c(C)n(C)c2cc(-c3cc(OC)c(OC)c(OC)c3)nn2c1=O		inactive: 7.1%
CCOC(=O)c1cc2sccc2n1CC(=O)Nc1ccc(OC)c(OC)c1	inconclusive: 0.708 µM [inhibitor, full curve, poor fit]	
CCCCCC(=O)N/N=C/c1cc(Br)c(O)c(OC)c1	active: 50.1 µM	
NC(=S)N/N=C1\CC(n2nnnc2-c2ccccc2)C2COC1O2 (centres undefined)		inconclusive: -73.8% [inhibitor]
Fc1ccc(C2c3[nH]c4ccccc4c3CCN2Cc2ccoc2)cc1 (centres undefined)	inconclusive: 44.7 µM [inhibitor, partial curve]	
CN1C(=O)c2oc3ccccc3c(=O)c2C1c1ccccn1 (centres undefined)	active: 28.2 µM	
S=c1[nH]nc(-c2ccc(Br)o2)n1Cc1ccccc1	inconclusive: 3.16 µM [inhibitor, single point]	
CCN(CC)CCCn1c(=S)[nH]c2cc(OC)c(OC)cc2c1=O		inconclusive: -89.2% [inhibitor]

— PubChem BioAssay AID504332 (National Center for Advancing Translational Sciences (NCATS), 2011)
